Data as given in PubChem BioAssay AID1768 (National Center for Advancing Translational Sciences (NCATS), 2009).
In all, about 270,000 compounds went through this assay and about 620 (0.23%) were called active. The inconclusive results got no clear call from the source; some entries with a clear call stand among them for comparison. The call rests on the fitted dose curve; in most records, active means well fitted inhibition curve with a large enough effect in the polarisation, with a control signal flat (not every such curve was filed as active); inconclusive means small, poorly fitted or top-dose-only effect, or effect the other way, or a change in a side signal; inactive means no such curve, though single readings can be large or run the other way; the % refers to the polarisation. A potency beside an inconclusive call is a rough fit, not a confirmed value. A note “side channel” means that the fit belongs to a control or component signal, not to the main read-out.

What follows are molecules tested against Menin (Homo sapiens) (UniProt O00255) (assay: qHTS Assay for Inhibitors Targeting the Menin-MLL Interaction in MLL Related Leukemias: Competition With Texas Red Labeled MLL-derived Mutant Peptide). Conditions: fluorescence polarization; FP activity change, negative = inhibition: at 61.6 µM (top of the series).
Chain of UniProt O00255 (O00255 whole entry, looked up): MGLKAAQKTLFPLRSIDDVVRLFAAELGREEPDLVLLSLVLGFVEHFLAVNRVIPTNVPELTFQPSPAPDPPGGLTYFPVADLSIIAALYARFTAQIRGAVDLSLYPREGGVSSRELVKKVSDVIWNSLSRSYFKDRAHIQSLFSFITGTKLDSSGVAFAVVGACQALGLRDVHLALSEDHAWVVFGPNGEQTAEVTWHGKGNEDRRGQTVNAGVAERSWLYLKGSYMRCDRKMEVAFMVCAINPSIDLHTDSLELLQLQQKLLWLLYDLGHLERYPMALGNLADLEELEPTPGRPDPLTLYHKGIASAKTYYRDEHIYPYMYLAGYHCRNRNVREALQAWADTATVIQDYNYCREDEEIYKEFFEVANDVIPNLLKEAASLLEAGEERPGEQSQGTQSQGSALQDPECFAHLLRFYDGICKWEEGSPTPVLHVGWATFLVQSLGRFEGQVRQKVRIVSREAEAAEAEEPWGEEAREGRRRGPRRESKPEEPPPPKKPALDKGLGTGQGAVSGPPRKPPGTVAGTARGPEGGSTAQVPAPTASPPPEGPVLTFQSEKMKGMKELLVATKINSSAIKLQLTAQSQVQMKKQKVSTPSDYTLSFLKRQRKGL
Potency means the concentration at half of the fitted maximal effect; tags describe the fitted curve by direction and shape or compound fluorescence and quenching.
Wherever FP activity change, negative = inhibition is given: % of control where 0% means no effect.

FP activity change, negative = inhibition, inactive:
Cc1cccc(N2CCN(CC(=O)Nc3ccccc3[N+](=O)[O-])CC2)c1C -5.01%
CCN(CC)CCC[C@H](C)Nc1c2ccc(Cl)cc2nc2ccc(OC)cc12 -22.5% [at 24.8 µM]
CCCCN1CCC[C@H]1CNC(=O)c1cc(C#N)c2ccccc2c1OC -2.43%
CCCCCCCCCCCCCCOS(=O)(=O)O -9.27%
CCOc1ccc2[nH]c(C)c(CN3CCN(CC)CC3)c(=O)c2c1 -15.9%

Potency, inconclusive:
O=[N+]([O-])c1ccccc1S(=O)(=O)Oc1ccc(C(=S)N2CCOCC2)cc1 25.1 µM [quencher, side channel, partial curve]
COc1cccc(NC(=O)c2cc(C(=O)Nc3cccc(OC)c3)n(C)n2)c1 35.5 µM [quencher, side channel, single point]
COc1cccc(/C=C2\C(=O)N(c3cccc(C)c3)C(=O)c3ccccc32)c1 39.8 µM [quencher, side channel, single point]
CCOc1cc(-c2cc(-c3ccc(N)cc3)nc(N)c2C#N)ccc1O 22.4 µM [quencher, side channel, partial curve]
CCCC(=O)NC(c1ccc(C)cc1)c1ccc2cccnc2c1O (configuration not stated) 1.58 µM [inhibitor, partial curve, poor fit]
Cc1cccc(NC(=O)CSc2nnc(-c3ccco3)c(-c3ccco3)n2)c1 17.8 µM [quencher, side channel, partial curve]
CC(C)Cn1c(N)c(C(=O)CSc2ccc3c(c2)OCCO3)c(=O)n(C)c1=O 39.8 µM [fluorescent, side channel, single point]
CC(C)(C)N(Cc1cc2ccccc2[nH]c1=O)C(=O)C1CCCCC1 25.1 µM [fluorescent, side channel, single point]
C=CCc1cc(OC)ccc1OCCCCn1cncn1 22.4 µM [inhibitor, partial curve, poor fit]
CCC(Sc1nc(-c2cccc(OC)c2)c(C#N)c(=O)[nH]1)C(=O)Nc1nnc(C(C)C)s1 (configuration not stated) 25.1 µM [quencher, side channel, partial curve]
O=C(CSc1ccsc1[N+](=O)[O-])Nc1cc(F)ccc1F 22.4 µM [quencher, side channel, partial curve]
O=C(Nc1ccc(-c2nnc(-c3ccccc3)o2)cc1)C1CCCO1 (configuration not stated) 39.8 µM [inhibitor, single point]
O=S(=O)(Nc1nc2ccccc2nc1Nc1ccc(N2CCOCC2)cc1)c1cc(Cl)ccc1Cl 5.62 µM [quencher, side channel, partial curve]
CCOc1ccc(C(=O)NCC2OCCc3ccccc32)cc1 (configuration not stated) 20 µM [inhibitor, partial curve]
Cc1nc(Nc2ccc(Cl)c(Cl)c2)sc1C(=O)Nc1ccccc1 22.4 µM [quencher, side channel, partial curve]
Cc1ccc(C(=O)N[C@@H](C)CN2C3=NC[C@H](C(C)C)N3C[C@H]2Cc2ccc(O)cc2)cc1Br 3.55 µM [fluorescent, side channel, full curve]
O=C(CNc1ccccc1)N/N=C/c1cc([N+](=O)[O-])ccc1N1CCCC1 15.8 µM [quencher, side channel, partial curve]
Clc1ccc(-n2nnnc2CN2CCCCC2)cc1Cl 2.51 µM [inhibitor, partial curve]
CCOC(=O)C1(CCc2ccccc2)CCN(C2Cc3ccccc3C2)CC1 25.1 µM [quencher, side channel, partial curve]
CCC1=NN(C(=O)Cc2ccccc2)C(O)(c2ccncc2)C1 (configuration not stated) 15.8 µM [inhibitor, single point]
Cc1ccc2nc(-c3ccc(NC(=O)COC(=O)c4ccco4)cc3)sc2c1 12.6 µM [inhibitor, partial curve]
O=C(O)c1cccc2c1-c1ccccc1/C2=N\Nc1ccccc1 22.4 µM [quencher, side channel, partial curve]
Cn1cccc1CNC(=S)Nc1ccccc1Cl 17.8 µM [quencher, side channel, single point]
CCCc1nc2ccccc2c(=O)n1/N=C/c1ccc(O)cc1O 11.2 µM [quencher, side channel, partial curve]
O=C1CC(C(=O)Nc2cc(Cl)ccc2Cl)n2ncnc2N1 (configuration not stated) 35.5 µM [inhibitor, single point]
Cc1ccc(C)c(/C(O)=C2\C(=O)C(=O)N(CCCn3ccnc3)C2c2ccncc2)c1 (configuration not stated) 3.98 µM [inhibitor, partial curve]
O=C(Nc1nccs1)c1cccc(N2C(=O)c3cccc4c([N+](=O)[O-])ccc(c34)C2=O)c1 39.8 µM [quencher, side channel, single point]
CN(C)c1ccc(N/C=C/C(=O)c2ccco2)cc1 31.6 µM [quencher, side channel, single point]
CC(=O)c1cccc2c(O)c(C3=Nc4ccccc4C3=O)[nH]c12 12.6 µM [quencher, side channel, partial curve]
CCC(C)(C)NC(=O)C(c1cccs1)N(CC1CCCO1)C(=O)Cn1nnc2ccccc21 (configuration not stated) 28.2 µM [fluorescent, side channel, single point]
CC(=O)c1ccc(NC(=O)Nc2ccc([N+](=O)[O-])cc2C)cc1 14.1 µM [quencher, side channel, partial curve]
CC(C)Cc1csc(NC(=O)c2ccccc2Cl)c1C(=O)O 31.6 µM [quencher, side channel, single point]
